The target in test [1] is BubR1 (human (endogenous in Ramos)) (UniProt O60566). The test is described as follows: co-IP; endogenous proteins; Ramos cells synchronised with nocodazole for 18 hr; lysates precipitated with anti-BubR1 or anti-Peli1 antibody, blotted with anti-Peli1 and anti-Bub3 or anti-BubR1.
Test [2] deals with GST-BubR1 central region (amino acids 201-500) (UniProt O60566). Kind of test: pull-down; purified GST-BubR1 deletion mutants incubated with extracts of nocodazole-synchronised Ramos cells; blot with anti-Peli1 or anti-Bub3; only the target purified.
Test [3] addresses T1, GST-Peli1 (human) (UniProt Q96FA3).
T1 sequence: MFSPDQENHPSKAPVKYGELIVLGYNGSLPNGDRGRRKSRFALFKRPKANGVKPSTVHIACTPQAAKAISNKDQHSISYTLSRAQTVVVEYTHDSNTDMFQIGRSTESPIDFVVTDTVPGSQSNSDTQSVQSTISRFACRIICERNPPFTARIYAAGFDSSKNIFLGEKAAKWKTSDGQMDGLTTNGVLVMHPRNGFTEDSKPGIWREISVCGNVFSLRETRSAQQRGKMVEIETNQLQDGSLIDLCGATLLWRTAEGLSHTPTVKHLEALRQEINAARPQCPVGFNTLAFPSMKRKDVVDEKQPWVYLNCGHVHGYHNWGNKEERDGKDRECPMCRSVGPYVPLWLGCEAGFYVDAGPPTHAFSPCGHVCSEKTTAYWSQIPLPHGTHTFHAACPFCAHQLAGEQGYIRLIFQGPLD
The test is described as follows: pull-down; beads bound to GST-Peli1 incubated with lysate of the floating population (mitotic shake-off) of nocodazole-synchronised HeLa cells; blot for BubR1; only the target purified.

Amino acid sequences for entries named in this document (tags omitted). A change or cut given only in a name is not applied to a line headed by its entry. Residues count along the entry.
UniProt O60566: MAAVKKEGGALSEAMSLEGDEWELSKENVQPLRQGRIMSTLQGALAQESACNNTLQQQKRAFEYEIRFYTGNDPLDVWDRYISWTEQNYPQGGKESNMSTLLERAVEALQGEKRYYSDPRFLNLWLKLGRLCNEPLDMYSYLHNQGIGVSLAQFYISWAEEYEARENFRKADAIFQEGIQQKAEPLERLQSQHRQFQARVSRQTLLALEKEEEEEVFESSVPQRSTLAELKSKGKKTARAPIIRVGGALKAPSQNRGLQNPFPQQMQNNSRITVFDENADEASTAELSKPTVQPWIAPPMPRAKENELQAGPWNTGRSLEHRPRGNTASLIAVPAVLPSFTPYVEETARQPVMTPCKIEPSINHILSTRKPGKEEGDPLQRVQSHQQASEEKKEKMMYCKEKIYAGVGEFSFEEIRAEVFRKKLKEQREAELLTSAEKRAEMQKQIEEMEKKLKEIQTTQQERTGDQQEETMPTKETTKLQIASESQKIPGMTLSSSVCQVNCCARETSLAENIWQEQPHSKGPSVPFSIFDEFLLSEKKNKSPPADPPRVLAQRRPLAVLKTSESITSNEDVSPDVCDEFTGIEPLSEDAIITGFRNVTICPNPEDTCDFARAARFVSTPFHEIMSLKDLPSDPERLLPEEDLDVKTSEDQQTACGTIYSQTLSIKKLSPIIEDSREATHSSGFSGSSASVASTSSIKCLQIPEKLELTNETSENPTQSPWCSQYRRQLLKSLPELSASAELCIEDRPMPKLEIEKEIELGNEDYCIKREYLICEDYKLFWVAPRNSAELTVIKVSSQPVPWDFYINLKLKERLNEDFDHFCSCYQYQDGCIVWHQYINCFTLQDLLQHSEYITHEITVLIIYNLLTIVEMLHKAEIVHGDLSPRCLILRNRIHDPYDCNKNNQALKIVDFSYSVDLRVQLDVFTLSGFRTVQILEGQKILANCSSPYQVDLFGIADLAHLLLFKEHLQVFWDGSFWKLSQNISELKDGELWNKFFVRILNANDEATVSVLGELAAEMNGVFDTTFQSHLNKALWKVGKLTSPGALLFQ
GST-BubR1 central region (amino acids 201-500): residues 201-500 of O60566
UniProt O43684: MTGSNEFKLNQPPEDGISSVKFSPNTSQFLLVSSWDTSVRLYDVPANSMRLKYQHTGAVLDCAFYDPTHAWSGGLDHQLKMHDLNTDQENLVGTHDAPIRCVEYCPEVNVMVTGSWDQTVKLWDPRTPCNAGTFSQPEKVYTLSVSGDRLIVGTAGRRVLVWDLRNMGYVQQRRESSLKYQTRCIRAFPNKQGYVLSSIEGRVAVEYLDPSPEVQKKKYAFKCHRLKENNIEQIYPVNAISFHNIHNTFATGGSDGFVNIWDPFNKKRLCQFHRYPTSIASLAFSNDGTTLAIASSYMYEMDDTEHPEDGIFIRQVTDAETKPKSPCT

Test [4] deals with T1, GST-Peli1 (human). Kind of test: pull-down; beads bound to GST-Peli1 incubated with lysate of the attached population (considered non-mitotic) of nocodazole-treated HeLa cells; blot for BubR1; only the target purified.
Test [5] deals with T2, Myc-Peli1 NH2-terminal fragment (amino acids 1-280) (human) (UniProt Q96FA3).
T2 sequence: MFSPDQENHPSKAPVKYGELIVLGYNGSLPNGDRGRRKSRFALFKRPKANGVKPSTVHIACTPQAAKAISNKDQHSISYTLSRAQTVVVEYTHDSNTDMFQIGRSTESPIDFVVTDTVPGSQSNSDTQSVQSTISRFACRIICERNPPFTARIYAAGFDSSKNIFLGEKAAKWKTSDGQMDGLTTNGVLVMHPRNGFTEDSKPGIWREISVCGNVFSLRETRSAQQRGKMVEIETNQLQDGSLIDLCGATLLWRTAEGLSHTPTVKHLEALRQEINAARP
The test is described as follows: co-IP; HeLa cells co-transfected with Myc-Peli1 (full length or deletion mutants) and Flag-BubR1, nocodazole 200 ng/ml for 24 hr; precipitated with anti-Myc, blotted with anti-Flag.

Test [6] concerns the target T3, Myc-Peli1 COOH-terminal fragment (amino acids 281-418) (human) (UniProt Q96FA3).
T3 sequence: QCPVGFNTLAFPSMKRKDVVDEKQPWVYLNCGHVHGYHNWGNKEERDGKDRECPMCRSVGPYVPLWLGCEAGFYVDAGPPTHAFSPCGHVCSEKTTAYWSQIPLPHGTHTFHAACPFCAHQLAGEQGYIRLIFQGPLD
Described as above.

These are yes or no findings as the source states them, for the method shown. Binding seen in cells or lysates may run through a third protein. Some binding calls cover weakened binding; strength is not graded here. For part of these data: Where a sequence is shown, tags or fusion partners need not be part of it.

As to Bub3 (from UniProt O43684 1-328), the binding result in test [1] and in test [2] was “binds” each time.

On to BubR1 (from UniProt O60566 1-1050), for which the figures for the binding result in the test with GST-Peli1 (human) [3] and in the test with GST-Peli1 (human) [4] were “binds” and “binds weakly”, respectively.

With Flag-BubR1 (from UniProt O60566 1-1050), the binding entry in test [5] is on record as “no binding”; in test [6] it was “binds”.

Values taken from paper PMC5458268.
